Tests used:
[1] = target: T1, human CD47-Fc chimeric protein (human, UniProt Q08722 fragment); assay: SPR (Biacore T200), human CD47-Fc captured on anti-human IgG (Fc) CM5 chip, analyte 50 nM, bivalent analyte model
T1 construct: also called hCD47; human CD47 protein; not shown: Fc part, not specified

[2] = target: T2, human CD20 on cells (CHO-K1-hCD20 cells; Raji cells) (human, UniProt P11836 1-297); assay: flow cytometry on Raji cells (CD20+/CD47+; binding to CD20 and CD47 is not separated), anti-human IgG-FITC detection
T2 construct: whole, on cells; also called CD20 antigen
T2 sequence (looked up): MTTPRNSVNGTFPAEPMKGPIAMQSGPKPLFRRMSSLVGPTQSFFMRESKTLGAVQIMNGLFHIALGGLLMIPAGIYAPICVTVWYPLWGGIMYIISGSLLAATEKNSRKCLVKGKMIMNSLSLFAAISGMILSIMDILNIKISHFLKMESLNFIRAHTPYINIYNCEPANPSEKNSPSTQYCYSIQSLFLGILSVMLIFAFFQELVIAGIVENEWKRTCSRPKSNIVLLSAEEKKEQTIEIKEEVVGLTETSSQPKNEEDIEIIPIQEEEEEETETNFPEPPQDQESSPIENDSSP

T1 sequence (Q08722 19-139 limits assumed, stated change not applied): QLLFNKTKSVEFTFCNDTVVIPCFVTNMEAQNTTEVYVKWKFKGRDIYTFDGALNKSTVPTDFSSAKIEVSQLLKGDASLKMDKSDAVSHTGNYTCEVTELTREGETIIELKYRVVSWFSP

Kd [1]: 52.8 nM
binding result [2]: binds
B1: LCB-002 (bispecific antibody, human IgG1, kappa)
heavy: EVQLVESGGGLVQPGRSLRLSCAASGFTFNDYAMHWVRQAPGKGLEWVSTISWNSGSIGYADSVKGRFTISRDNAKKSLYLQMNSLRAEDTALYYCAKDIQYGNYYYGMDVWGQGTTVTVSSASTKGPSVFPLAPSSKSTSGGTAALGCLVKDYFPEPVTVSWNSGALTSGVHTFPAVLQSSGLYSLSSVVTVPSSSLGTQTYICNVNHKPSNTKVDKKV[left out - human IgG1 Fc with changes]
chain: not shown
notes: also called CD20 × SIRPαD1 bispecific recombinant protein
